# Some of the results follow. The energies were worked out here from pooled read counts, against the library average; single values are noisy.
# Molecular target: T1, Pho4 (S. cerevisiae) (UniProt P07270)
# T1 sequence: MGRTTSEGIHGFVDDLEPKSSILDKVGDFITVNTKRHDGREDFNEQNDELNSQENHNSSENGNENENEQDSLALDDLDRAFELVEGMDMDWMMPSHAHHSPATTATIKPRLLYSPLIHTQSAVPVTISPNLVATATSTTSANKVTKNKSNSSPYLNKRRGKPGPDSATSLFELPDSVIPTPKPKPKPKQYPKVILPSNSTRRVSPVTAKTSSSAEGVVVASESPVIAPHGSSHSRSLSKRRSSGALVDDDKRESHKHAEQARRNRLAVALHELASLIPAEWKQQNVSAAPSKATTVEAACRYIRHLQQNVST
# Experiment: relative binding free energy (BET-seq); higher = weaker binding
# Details: reference: library average
row,Sequence,relative binding free energy [kcal/mol]
1,GGCAGCACGTGGGGAT,-0.16
2,AAGTACACGTGGTGGA,0.07
3,AGGTACACGTGAAGAG,0.18
4,TGGGACACGTGCATTT,0.07
5,GAATGCACGTGGGGAG,-0.05
6,GGTAGCACGTGATTTG,0.13
7,TGATTCACGTGGGGCT,0.23
8,TGTAGCACGTGTAAGT,-0.07
9,GTGGCCACGTGGCGGG,-0.12
10,AAGATCACGTGGGAGT,0.02
11,ATATGCACGTGTGGTC,-0.05
12,GGACTCACGTGGAGTT,0.26
13,GGTTTCACGTGGTGCC,0.22
14,GGTCGCACGTGTTATG,-0.14
15,TGAGACACGTGAGGAG,0.21
16,AGGATCACGTGGGGGC,0.12
17,GGACTCACGTGCGTGG,0.05
18,GGTTACACGTGGGGCT,0.2
19,TTTTGCACGTGCGGCT,0
20,GGTGTCACGTGTCGGC,0.2
21,GAGCTCACGTGTAGGT,0.32
22,TTTACCACGTGTTGAT,-0.06
23,TGGGGCACGTGTACAA,-0.01

row,Sequence,relative binding free energy [kcal/mol]
1,GGTGGCACGTGCCAGG,0.03
2,ATTTGCACGTGGAACG,0.07
3,TGGTACACGTGAATTG,0.13
4,AGTAACACGTGGTAAT,-0.08
5,ATGGGCACGTGTATCG,-0.23
6,TCTTTCACGTGCGGGA,0.15
7,TTCTACACGTGCAGGG,0.2
8,AGTGCCACGTGTTGGA,-0.04
9,CTAAGCACGTGGGGGT,-0.25
10,GTGTTCACGTGCATGC,0.27
11,AGAGGCACGTGAAGAG,0.19
12,TCGGACACGTGTGGAT,0.04
13,ATAGCCACGTGGGCGG,-0.29
14,GCGTTCACGTGTATTT,0.41
15,TACTTCACGTGGGCAT,0.3
16,TAGAGCACGTGTAAGT,-0.05
17,TGGCCCACGTGATGTG,0.04
18,CTGTACACGTGTGTGA,0.03
19,GCTTACACGTGGGTAG,-0.08
20,GAATTCACGTGTGCGG,0.41
21,GGGGGCACGTGTAAGA,-0.01
22,ATTGTCACGTGCATTA,-0.05
23,TGTACCACGTGAAGTA,0.35

row,Sequence,relative binding free energy [kcal/mol]
1,TTATGCACGTGCTGTC,0.12
2,GGATTCACGTGTTAGG,0.39
3,CATGACACGTGGGTGA,-0.1
4,GAGGTCACGTGGGGAA,0.06
5,TTGGACACGTGTGAGC,0.12
6,TGTGTCACGTGGCGCC,-0.01
7,CATGGCACGTGGTAGA,-0.17
8,AATAACACGTGATTTT,0.36
9,GGGATCACGTGTTAAT,0.18
10,TAAGTCACGTGTTGCA,0.08
11,ATTACCACGTGTGTGT,-0.14
12,TGGCGCACGTGGAAGG,-0.02
13,AGATGCACGTGCGGTG,-0.17
14,TCGGTCACGTGTTTTT,0.05
15,CGGGTCACGTGATGCG,0.12
16,TGGACCACGTGATAGG,0.17
17,GGTATCACGTGGATTG,0.14
18,ATGTTCACGTGAGGGA,0.32
19,CGGAGCACGTGGCGTA,-0.19
20,GCGATCACGTGGTGGG,0.2
21,TATGTCACGTGGACGG,0.08
22,TTAGTCACGTGCGCTT,0.1
23,TGGTACACGTGAATGA,0.2

row,Sequence,relative binding free energy [kcal/mol]
1,GTGGGCACGTGTCGTG,0.01
2,CGTGTCACGTGGTATT,0.08
3,CTGGTCACGTGTAGTA,0.23
4,TATGTCACGTGGTCCG,0
5,AGGCGCACGTGGGAGA,-0.14
6,CTAGGCACGTGGTATT,-0.21
7,GGATTCACGTGATTAT,0.43
8,ATTTGCACGTGTTGGA,0.1
9,ATGGCCACGTGGTAGA,0.02
10,TCCAGCACGTGGTGGG,-0.06
11,ATCTACACGTGTGGTA,0.21
12,TAAGTCACGTGGATGT,0.18
13,CTTGGCACGTGAAAGT,0.17
14,ATGCGCACGTGTTGGT,-0.03
15,TTGATCACGTGGTGGA,0.01
16,TGTTTCACGTGATGCA,0.41
17,TATAGCACGTGTTGTA,-0.1
18,AGTTCCACGTGAGGAG,0.33
19,AGATGCACGTGATGTT,0.04
20,AGTGTCACGTGTTACA,0
21,TTGTTCACGTGGAGCT,0.37
22,GGGTTCACGTGCTAGT,0.25
23,CTTGGCACGTGGATTC,0.1

row,Sequence,relative binding free energy [kcal/mol]
1,TGGGTCACGTGTTGCC,0.09
2,AGTGTCACGTGGTCAT,-0.05
3,CGGATCACGTGTTATG,0.12
4,TGCGGCACGTGAGCTT,0.02
5,AGTGTCACGTGGGTCC,-0.09
6,CGGTTCACGTGCATAG,0.42
7,CTGGTCACGTGGTAAG,0.02
8,GGTGACACGTGGAAGA,0.13
9,TATGACACGTGCGGTT,-0.16
10,GATTCCACGTGTTTTG,0.1
11,ATGATCACGTGTCTTG,0.18
12,GTGACCACGTGGGGAA,-0.07
13,TGGGGCACGTGCCGCG,-0.29
14,AATTTCACGTGTATCG,0.27
15,GGTGACACGTGTGAAT,0.34
16,CGCTTCACGTGTGTGT,0.27
17,CTGTGCACGTGACGTG,0.06
18,GTAGGCACGTGACGAT,0.12
19,TTATTCACGTGGAGAC,0.39
20,TAATGCACGTGTGGGA,0.03
21,ACAGTCACGTGGATGG,-0.02
22,CATAACACGTGTTGTG,-0.02
23,ATGTGCACGTGTTGGC,0

# Reference: the BET-seq Pho4 binding data (Le et al. 2018)
